Reference: PMC4336329 (PLoS ONE, 2015)
About 14,000 (4.5%) of roughly 310,000 compounds showed an effect of 50% or more. The effect is printed as a negative number. The list shows a part of the results.

These molecules were tested against human ether-à-go-go-related gene (hERG) potassium channel (human, UniProt Q12809) (assay: primary screen, population patch clamp on CHO cells stably expressing hERG).
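Note: peak tail current of the secondary pulse compared with the same well before compound.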

human ether-à-go-go-related gene (hERG) potassium channel, sequence (Q12809 whole entry, looked up): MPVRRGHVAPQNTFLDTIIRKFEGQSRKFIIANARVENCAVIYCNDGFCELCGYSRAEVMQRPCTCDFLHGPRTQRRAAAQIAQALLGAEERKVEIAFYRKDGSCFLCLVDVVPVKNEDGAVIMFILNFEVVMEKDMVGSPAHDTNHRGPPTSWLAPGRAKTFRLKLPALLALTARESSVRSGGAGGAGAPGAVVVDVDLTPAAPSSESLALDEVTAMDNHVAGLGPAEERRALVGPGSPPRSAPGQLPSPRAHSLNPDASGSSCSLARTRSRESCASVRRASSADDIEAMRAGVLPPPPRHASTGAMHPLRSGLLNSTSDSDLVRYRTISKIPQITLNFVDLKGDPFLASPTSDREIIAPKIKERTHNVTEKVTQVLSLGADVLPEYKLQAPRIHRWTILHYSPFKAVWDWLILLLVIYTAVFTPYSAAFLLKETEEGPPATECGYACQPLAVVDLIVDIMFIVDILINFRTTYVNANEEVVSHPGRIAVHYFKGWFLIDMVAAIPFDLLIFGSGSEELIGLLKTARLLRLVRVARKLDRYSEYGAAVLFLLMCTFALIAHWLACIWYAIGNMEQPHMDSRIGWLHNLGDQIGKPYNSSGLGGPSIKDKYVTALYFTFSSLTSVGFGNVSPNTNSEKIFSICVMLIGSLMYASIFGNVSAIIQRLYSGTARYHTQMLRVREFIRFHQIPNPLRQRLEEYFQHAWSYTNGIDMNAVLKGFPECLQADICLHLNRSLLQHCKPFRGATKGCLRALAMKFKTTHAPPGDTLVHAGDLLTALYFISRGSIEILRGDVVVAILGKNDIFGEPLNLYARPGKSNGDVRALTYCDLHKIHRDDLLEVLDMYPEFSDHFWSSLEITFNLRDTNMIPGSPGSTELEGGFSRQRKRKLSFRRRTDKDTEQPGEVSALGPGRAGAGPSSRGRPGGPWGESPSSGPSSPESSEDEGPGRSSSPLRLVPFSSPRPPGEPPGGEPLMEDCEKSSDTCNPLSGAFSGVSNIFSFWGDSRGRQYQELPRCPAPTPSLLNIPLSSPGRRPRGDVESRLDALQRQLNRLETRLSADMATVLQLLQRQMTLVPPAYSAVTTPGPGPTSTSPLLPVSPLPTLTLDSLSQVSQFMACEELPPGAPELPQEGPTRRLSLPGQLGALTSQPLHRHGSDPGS

Compound	hERG current change (%, negative = inhibition) at 10uM [%]
NCCN1CCN(S(=O)(=O)c2ccc([N+](=O)[O-])cc2)C=C1c1ccc(Cl)cc1	-42.6
C/C(=N\Nc1nc2ccccc2[nH]1)c1ccc(N2CCOCC2)cc1	-15.2
NC(=O)COc1ccc(/C=N\NC(=O)CC(=O)NCCc2ccccc2)cc1	17.9
O=c1c2ccccc2nnn1CSc1nc2ccccc2[nH]1	-19.4
O=C(N/C(=C\c1ccco1)C(=O)N1CCOCC1)c1ccccc1Cl	12.6
Cc1ccc(Nc2nnc(SCC(=O)Nc3cccc(S(=O)(=O)NC4=NCCCCC4)c3)s2)cc1	3.63
CCOC(=O)c1c(C)[nH]c(=S)c(C#N)c1-c1ccccc1	21.1
Cc1ccsc1/C=N/n1c(=S)[nH]nc(C)c1=O	6.22
CCCCc1ccc(S(=O)(=O)Nc2ccc(C)c(NS(C)(=O)=O)c2)cc1	6.39
CCCn1c(N)c(C(=O)CSc2nnc3n2CCCCC3)c(=O)[nH]c1=O	-5.1
CCCCC(=O)NCCc1ccc(S(N)(=O)=O)cc1	9.01
C(=N\N1CCN(c2ccccn2)CC1)/c1ccccn1	13.5
Cc1nn(-c2ccc(C(=O)O)cc2)c(C)c1Cl	10.8
Cc1ccc(S(=O)(=O)N2CCC(C(=O)N3CCC[C@H]3C(=O)NCc3ccccc3)CC2)cc1	-10.7
COc1ccc2c(c1)[C@H]1[C@H](CO2)[C@H](c2ccccc2)[C@]2(C)C(=O)N(CC3CCCO3)CC(=O)N12 (some centres unmarked)	-2.94
Cc1ccccc1NC(=S)N1CCN(Cc2ccc3c(c2)OCO3)CC1	-10.3
Cc1ccc(C(=O)NCCCNc2ccccc2[N+](=O)[O-])cc1	-48.3
CCOC(=O)C1=C(C)Nc2ccccc2N=C1NC(=O)Cc1ccc(Br)cc1	9.19
Cl.NCCc1nnc(SCC(N)=O)o1	8.58

Compound	hERG current change (%, negative = inhibition) at 10uM [%]
COC(=O)c1cn(NC(=O)CC2CCCCC2)c(=O)c2ccccc12	-10.6
COCCn1c(=O)[nH]c2cc(C(=O)N3CCN(c4ccc(Cl)cc4)CC3)ccc2c1=O	10.5
CN1C(=O)/C(=C2\SC(N3CCCCCC3)=NC2=O)c2ccccc21	-25.1
Cc1cc(C)c(NC(=O)CSCc2nc3sc(C)c(C)c3c(=O)[nH]2)c(Cl)c1	-5.07
Cn1ncc2c(NNC(=O)c3ccc(O)cc3)ncnc21	18.7
CC(C)C(OC(=O)c1cc2c(s1)CCCCC2)C(=O)NC(N)=O (centres unmarked)	0.693
CCc1c(C)sc(NC(=O)CC#N)c1C#N	11.8
COc1cc(/C=C2/C(=N)N3C(SC)=NSC3=NC2=O)ccc1OC(=O)c1ccco1	14.1
COc1ccc(N2C(=O)CC(Sc3ccccc3C(=O)O)C2=O)c([N+](=O)[O-])c1 (centres unmarked)	22.3
Cc1ccc(Cn2ccc(NC(=O)c3nn(C)cc3[N+](=O)[O-])n2)cc1	4.67
CC1CCCN(c2nc(-c3cccnc3)nc3scc(-c4ccccc4)c23)C1 (centres unmarked)	11.6
CCCn1cc(SCC(=O)Nc2nnc(C)s2)c2ccccc21	13.8
CC(=O)NC12CC3CC(C1)CC(C(=O)Nc1nc4ccc(S(C)(=O)=O)cc4s1)(C3)C2	-1.14
O=C(O)[C@H]1CCCC[C@H]1C(=O)NCCNC(=O)[C@@H]1CCCC[C@@H]1C(=O)O	11.6
Cc1ccc(S[C@@H](CCN2CC[C@H](O)CCC2=O)c2ccccc2)cc1	-12.7
CCN(CCO)c1ncnc2c1sc1nc(CC(C)C)c3c(c12)CC(C)(C)OC3	19.5
CCOC(=O)C1CCN(C(=O)COc2ccc(Br)cc2Br)CC1	-51.8
CCOC(=O)CNc1ccc(C(=O)OCC)cc1[N+](=O)[O-]	-0.367
COc1ccccc1NC(=O)c1cnc2c(-c3ccccc3)c(C)nn2c1C	3.15

Compound	hERG current change (%, negative = inhibition) at 10uM [%]
O=C(O)COc1ccc2nsnc2c1Cl	4.45
COc1ccc(OC)c(S(=O)(=O)N(C)CC(=O)N2CCOCC2)c1	11.3
Cc1nn(-c2ccc(F)cc2)c(Cl)c1/C=C(\CCC(=O)O)c1nc2ccccc2s1	-5.36
O=C1NC2c3ccccc3CC2O1 (centres unmarked)	18.2
COC(=O)c1ccccc1NC(=O)CSc1nncn1-c1cccnc1	-11.7
CN1CCNC(=O)C1CC(=O)O (centres unmarked)	-1.72
Cn1c(=O)c2c(SCC(=O)N3CCCC3)nc(-c3ccccc3)nc2n(C)c1=O	6.03
O=S(=O)(c1cccc(F)c1)N1CCN(Cc2cc3c(cc2Br)OCCO3)CC1	12.6
CC(CCc1ccccc1)NC(=O)CN(C)Cc1ccc(F)cc1 (centres unmarked)	-23.6
CCCCC(=O)N(CCOC)c1nnc(-c2ccc(OC)cc2)s1	7.51
O=C(NCc1ccccc1)C(=O)NCC1OCCN1S(=O)(=O)c1ccc(Br)cc1 (centres unmarked)	-13.3
O=C(NC1CCS(=O)(=O)C1)C1CCCCN1S(=O)(=O)c1ccc(Cl)cc1 (centres unmarked)	-6.74
Cc1c(C(=O)OCC(=O)N2CC(C)CC(C)C2)oc2ccccc12 (centres unmarked)	-13.7
COc1ccc(N2CCN(c3oc(Cc4cccc5ccccc45)nc3C#N)CC2)cc1	-6.4
O=c1c2cc(N3CCOCC3)ccc2[nH]c(=S)n1Cc1cccc(Cl)c1	1.02
Nc1ccc(O)c(C(=O)O)c1	-7.83
COc1ccc(S(=O)(=O)NC2CC(=O)N(c3ccc(C)c(C)c3)C2)cc1 (centres unmarked)	8.13
CCOCCn1c(CN2CCN(C(=O)c3ccco3)CC2)nc2c1c(=O)n(C)c(=O)n2C	-3.37
